# Measurements published in the supplement of paper PMC4967469.
# Compound: C=CC(=O)Nc1cccc(Nc2nc(NC3CCC(N(C)C)CC3)nc3c2ncn3C(C)C)c1 [WZ3105]
# Test: Viability of human cancer cell lines after 72 h of drug (GDSC screen)
# Conditions: top dose inferred
# Method: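 Human cancer cell lines in 384-well plates, medium with 10% serum, drug for 72 h over a 256-fold dose range (nine 2-fold or five 4-fold steps up to the top dose). Adherent lines were fixed and stained with the nucleic acid dye Syto60, suspension lines read with resazurin; signal relative to control wells, capped at 0 and 100%. One two-parameter sigmoid per drug and line, fitted in a mixed model over all curves with the slope shared within a line.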
Cell Line,AUC,IC50 [nM]
"LS-513 (large intestine, adherent, top dose 10.24 µM)",0.843,7690
"LS-1034 (large intestine, adherent, top dose 1.28 µM)",0.971,> 1280
"LU-65 (large cell lung carcinoma, suspension, top dose 1.28 µM)",0.782,636
"LU-99A (large cell lung carcinoma, adherent, top dose 1.28 µM)",0.951,> 1280
"LU-134-A (small cell lung carcinoma, suspension, top dose 1.28 µM)",0.735,395
"LU-135 (small cell lung carcinoma, suspension, top dose 1.28 µM)",0.588,133
"LU-139 (small cell lung carcinoma, suspension, top dose 1.28 µM)",0.613,178
"LU-165 (small cell lung carcinoma, suspension, top dose 1.28 µM)",0.814,808
"LXF-289 (lung adenocarcinoma, adherent, top dose 1.28 µM)",0.828,770
"LoVo (large intestine, adherent, top dose 1.28 µM)",0.943,> 1280
"M14 (melanoma, adherent, top dose 1.28 µM)",0.968,> 1280
"M059J (glioma, adherent, top dose 1.28 µM)",0.89,> 1280
"MC116 (B-cell lymphoma, suspension, top dose 1.28 µM)",0.652,186
"MC-CAR (haematopoietic neoplasm, suspension, top dose 1.28 µM)",0.865,933
"MC-IXC (neuroblastoma, adherent, top dose 1.28 µM)",0.745,317
"MCF7 (breast, adherent, top dose 1.28 µM)",0.98,> 1280
"MDA-MB-157 (breast, adherent, top dose 1.28 µM)",0.78,542
"MDA-MB-175-VII (breast, adherent, top dose 1.28 µM)",0.737,412
"MDA-MB-231 (breast, adherent, top dose 1.28 µM)",0.754,455
"MDA-MB-330 (breast, adherent, top dose 1.28 µM)",0.785,632
"MDA-MB-361 (breast, adherent, top dose 1.28 µM)",0.877,1270
"MDA-MB-415 (breast, adherent, top dose 1.28 µM)",0.935,> 1280
"MDA-MB-436 (breast, adherent, top dose 1.28 µM)",0.963,> 1280
"MDA-MB-453 (breast, adherent, top dose 10.24 µM)",0.38,288
"MDA-MB-468 (breast, adherent, top dose 1.28 µM)",0.653,209
"MDST8 (large intestine, adherent, top dose 1.28 µM)",0.887,> 1280
"ME-1 (acute myeloid leukaemia, suspension, top dose 1.28 µM)",0.959,> 1280

Cell Line,AUC,IC50 [nM]
"ME-180 (cervix, adherent, top dose 1.28 µM)",0.713,329
"MEG-01 (chronic myeloid leukaemia, suspension, top dose 1.28 µM)",0.911,> 1280
"MEL-JUSO (melanoma, adherent, top dose 1.28 µM)",0.615,173
"MES-SA (uterus, adherent, top dose 1.28 µM)",0.918,> 1280
"MFE-280 (endometrium, adherent, top dose 1.28 µM)",0.888,> 1280
"MFE-296 (endometrium, adherent, top dose 1.28 µM)",0.892,> 1280
"MFE-319 (endometrium, adherent, top dose 1.28 µM)",0.879,1240
"MFH-ino (soft tissue, adherent, top dose 1.28 µM)",0.912,> 1280
"MFM-223 (breast, adherent, top dose 1.28 µM)",0.86,1050
"MG-63 (osteosarcoma, adherent, top dose 1.28 µM)",0.984,> 1280
"MHH-ES-1 (Ewing sarcoma, adherent, top dose 1.28 µM)",0.446,56.9
"MHH-NB-11 (neuroblastoma, adherent, top dose 1.28 µM)",0.892,> 1280
"MHH-PREB-1 (B-cell leukaemia, suspension, top dose 1.28 µM)",0.606,151
"MIA-PaCa-2 (pancreas, adherent, top dose 1.28 µM)",0.926,> 1280
"MKN1 (stomach, adherent, top dose 1.28 µM)",0.911,> 1280
"MKN28 (stomach, adherent, top dose 1.28 µM)",0.929,> 1280
"MKN45 (stomach, adherent, top dose 1.28 µM)",0.82,999
"ML-1 (thyroid, adherent, top dose 1.28 µM)",0.891,> 1280
"ML-2 (acute myeloid leukaemia, suspension, top dose 1.28 µM)",0.556,111
"MLMA (hairy cell leukaemia, semi-adherent, top dose 1.28 µM)",0.489,74.8
"MMAC-SF (melanoma, adherent, top dose 1.28 µM)",0.859,1130
"MN-60 (B-cell leukaemia, suspension, top dose 1.28 µM)",0.691,281
"MOG-G-CCM (glioma, adherent, top dose 1.28 µM)",0.794,705
"MOG-G-UVW (glioma, adherent, top dose 1.28 µM)",0.794,570
"MOLM-13 (acute myeloid leukaemia, suspension, top dose 1.28 µM)",0.176,9.17
"MOLP-8 (myeloma, suspension, top dose 1.28 µM)",0.458,61.9
"MOLT-4 (lymphoblastic leukaemia, suspension, top dose 10.24 µM)",0.215,116

Cell Line,AUC,IC50 [nM]
"MOLT-13 (T-cell lymphoblastic leukaemia, suspension, top dose 1.28 µM)",0.661,211
"MONO-MAC-6 (acute myeloid leukaemia, suspension, top dose 1.28 µM)",0.505,82.8
"MPP-89 (mesothelioma, adherent, top dose 1.28 µM)",0.974,> 1280
"MRK-nu-1 (breast, suspension, top dose 1.28 µM)",0.838,768
"MS751 (cervix, adherent, top dose 1.28 µM)",0.902,> 1280
"MS-1 (small cell lung carcinoma, suspension, top dose 1.28 µM)",0.9,> 1280
"MSTO-211H (mesothelioma, adherent, top dose 1.28 µM)",0.988,> 1280
"MV-4-11 (leukaemia, suspension, top dose 1.28 µM)",0.275,21.1
"MY-M12 (leukaemia, suspension, top dose 1.28 µM)",0.52,91.1
"MZ1-PC (pancreas, adherent, top dose 1.28 µM)",0.553,115
"MZ2-MEL (melanoma, adherent, top dose 1.28 µM)",0.739,440
"MZ7-mel (melanoma, adherent, top dose 1.28 µM)",0.692,283
"Mewo (melanoma, adherent, top dose 1.28 µM)",0.917,> 1280
"Mo-T (hairy cell leukaemia, suspension, top dose 1.28 µM)",0.683,264
"NALM-6 (B-cell leukaemia, suspension, top dose 1.28 µM)",0.381,39.9
"NAMALWA (Burkitt lymphoma, suspension, top dose 1.28 µM)",0.579,127
"NB1 (neuroblastoma, semi-adherent, top dose 1.28 µM)",0.898,> 1280
"NB5 (neuroblastoma, adherent, top dose 1.28 µM)",0.984,> 1280
"NB6 (neuroblastoma, adherent, top dose 1.28 µM)",0.934,> 1280
"NB7 (neuroblastoma, adherent, top dose 1.28 µM)",0.752,441
"NB10 (neuroblastoma, adherent, top dose 1.28 µM)",0.97,> 1280
"NB12 (neuroblastoma, adherent, top dose 1.28 µM)",0.751,557
"NB13 (neuroblastoma, adherent, top dose 1.28 µM)",0.971,> 1280
"NB14 (neuroblastoma, adherent, top dose 1.28 µM)",0.857,946
"NB17 (neuroblastoma, adherent, top dose 1.28 µM)",0.611,169

# The IC50 comes from the fitted curve, where viability falls to half of the control; a limit (>, <) means that the fit lies beyond the doses tested. AUC sums up the same curve from the lowest dose to the 256-fold higher top dose; it is 1 without any effect and falls as sensitivity rises. A top dose marked as inferred comes from the curve model; the source does not state it.
